These results are taken from patent US20060263368A1, “Targeted chimeric molecules for cancer therapy” (Research Development Foundation, priority 2005, published 2006).

What all share (assay type): cell-based, human
Test [1] has as its system HER-2-overexpressing SKBR-3/H cells. Kind of test: Western blot, DNA fragmentation, TUNEL: signal transduction effects. Also noted: key to Akt / TRAF-2: NE represents no effect. The conditions noted are these: 200 nM. Here is the method:
Apoptosis was detected by DNA fragmentation and TUNEL assay. […] After 24 hr and 48 hr, cells were washed with PBS, resuspended in a DNA extraction buffer containing 5 mM Tris-HCl, pH 8, 50 mM EDTA, 10 μg/ml RNAse, and 0.25% SDS and then incubated for 1 hr at 37° C. To remove protein, resuspended cell lysates were treated with 100 μg/ml proteinase K for 3 hr at 50° C. DNA was extracted using phenol and chloroform followed by ethanol precipitation. The genomic DNA was resuspended in Tris-EDTA (pH 8) and was fractionated by electrophoresis on a 1% agarose gel containing ethidium bromide.
The cells were washed with PBS, permeabilized (0.1% Triton X-100, 0.1% sodium citrate), and then fixed in 4% paraformaldehyde. Fixed cells were stained with in situ cell death detection kit (Roche). Cells undergoing apoptosis were identified by fluorescence microscopy.
After treatment, cells were washed twice with phosphate buffered saline (PBS) and lysed on ice for 20 min in 0.3 ml of lysis buffer (10 mM Tris-HCl, pH 8, 60 mM KCl, 1 mM EDTA, 1 mM DTT, 0.2% NP-40). Cell lysates (50 μg) were fractionated by 8-15% SDS-PAGE and electrophoretically transferred to Immobilon-P nitrocellulose membranes (Schleicher & Schuell Inc., Keene, N.H.). Membranes were blocked 2 hrs in Tris-buffered saline (TBS) containing 3% bovine serum albumin and then probed with various antibodies (monoclonal anti-HER-2/neu Ab, rabbit polyclonal anti-TNFR1 Ab, rabbit polyclonal anti-TNFR2 Ab, rabbit polyclonal anti-caspase-8 Ab, monoclonal anti-caspase-3 Ab, monoclonal anti-PARP Ab, rabbit polyclonal anti-TRADD Ab, rabbit polyclonal anti-TRAF2 Ab, rabbit polyclonal anti-IκB-α Ab, rabbit polyclonal anti-phospho Akt Ab, and rabbit polyclonal anti-Akt Ab). Goat anti-mouse/goat anti-rabbit or swain anti-goat antibodies conjugated with horseradish peroxidase (Bio-Rad Laboratories, Hercules, Calif.) were used to visualize immunoreactive proteins at a 1:4000 dilution using ECL detection reagent (Amersham Pharmacia Biotech Inc., Piscataway, N.J.).
Background: In western blotting, separated proteins are transferred to a membrane and probed.

Test [2] has as its system Capan-1. Nature of the test: In vitro cytotoxicity and combination study, crystal violet. The conditions noted are these: 72 hr of exposure. The source says: (§1) If CI near to 1 indicates additive effect (ADD), CI>1 indicates antagonism (ANT), CI<1 indicates synergism (SYN).
Test [3] concerns AsPc-1. The description is as above. The conditions noted are these: 72 hr of exposure.
Source text: as §1

The subject of test [4] is L3.6pl. The test is described as above. The conditions noted are these: 72 hr of exposure.
Source text: as §1

In test [5] the test system is Capan-2. Described as above. The note with it: 72 hr of exposure.
Source text: as §1

In test [6] the test system is SKBR-3-LP cells. Nature of the test: Western blot of TNF receptor expression. Here is the method: After treatment, cells were washed twice with phosphate buffered saline (PBS) and lysed on ice for 20 min in 0.3 ml of lysis buffer (10 mM Tris-HCl, pH 8, 60 mM KCl, 1 mM EDTA, 1 mM DTT, 0.2% NP-40). Cell lysates (50 μg) were fractionated by 8-15% SDS-PAGE and electrophoretically transferred to Immobilon-P nitrocellulose membranes (Schleicher & Schuell Inc., Keene, N.H.). […] Goat anti-mouse/goat anti-rabbit or swain anti-goat antibodies conjugated with horseradish peroxidase (Bio-Rad Laboratories, Hercules, Calif.) were used to visualize immunoreactive proteins at a 1:4000 dilution using ECL detection reagent (Amersham Pharmacia Biotech Inc., Piscataway, N.J.).

The subject of test [7] is SKBR-3/H. Nature of the test: In vitro cytotoxicity, XTT. The note with it: 72 hr. Here is the method: (§2) SKBR-3 cells were grown in McCoy's 5A modified medium, supplemented with 10% heat-inactivated fetal bovine serum (FBS), 2 mM L-glutamine, 100 units/ml penicillin and 100 μg/ml streptomycin.
(§3) After 72 hr, 50 μl of XTT labeling mixture (Roche) was added to each well, after which the cells incubated for another 4 hr. The spectrophotometric absorbance was measured at 450 nm using an ELISA reader (Bio-Tek Instruments, Inc., Winooski, Vt.).
(Formazan colour is commonly taken as a measure of viable cells.)

The subject of test [8] is SKBR-3/L. Kind of test: In vitro cytotoxicity, XTT. The conditions noted are these: 72 hr. Here is the method:
as §2, §3

The test system of test [9] is L3.6pl cells. Nature of the test: Western blot of signal transduction effects. Also noted: key to PARP cleavage / Akt / p-Akt: NE represents no effect. The conditions noted are these: IC25 doses. Here is the method: Cell lysates ([…]) were fractionated by 8-15% SDS-PAGE and transferred on Immobilon-P nitrocellulose membranes (Schleicher & Schuell Inc., Keene, N.H.). Membranes were blocked for 2 hours in Tris-buffered saline (TBS) containing 3% bovine serum albumin. Monoclonal anti-HER-2/neu Ab (Oncogene Research Products, San Diego, Calif.), rabbit polyclonal anti-HER-1 Ab, rabbit polyclonal anti-TNFR-1 Ab, rabbit polyclonal anti-TNFR-2 Ab, rabbit polyclonal anti-phospho Akt Ab, rabbit polyclonal anti-Akt, and goat anti-β-actin Ab were used for immunoblotting. Goat anti-mouse/goat anti-rabbit or swain anti-goat antibodies conjugated with horseradish peroxidase (Bio-Rad Laboratories, Hercules, Calif.) were used to visualize immunoreactive proteins at a 1:4000 dilution using ECL detection reagent (Amersham Pharmacia Biotech Inc., Piscataway, N.J.).
HER-2/neu over-expression results in activation of different downstream pathways such as the Akt kinase pathway, which leads to cell proliferation and cell survival. […] The activation of Akt kinase was then assessed by Western blot analysis using antibodies to Akt and to phospho-Akt. […]
To determine whether caspase-8 and caspase-3 were activated in L3.6pl cells during 5-FU+scFv23/TNF-induced cell death, the cleavage of caspase-8, caspase-3, and its substrate poly (ADP)-ribose polymerase (PARP) was investigated.

Where “and” joins values, the source holds several entries; their conditions need not be identical. Equal values may be shown once.

B1: scFv23/TNF: immunocytokine: TNF tethered to the single chain antibody scFv23 that recognizes the cell-surface domain of HER-2/neu (protein)
scFv: DVQLTQSPAILSASPGEKVTMTCRATPSVSYMHWYQQKPGSSPKPWIYTTSNLASGVPARFSGGGSGTSYSLTVSRVEAEDAATYYCQQWSRSPPTFGGGSKLEIKGSTSGSGKSSEGKGVQLQESGPEVVKPGGSMKISCKTSGYSFTGHTMNWVKQSHGKNLEWIGLINPYNGDTNYNQKFKGKATFTVDKSSSTAYMELLSLTSEDSAVYYCARRVTDWYFDVWGAGTTVTVSSGGGGS[letters of about 150 residues not shown]
As for B1, in [1], the Akt result was “NE”, the Caspase-3 cleavage entry is “↑”, the Caspase-8 cleavage entry was “↑” and the DNA fragmentation result is on record as “↑”. Also, in test [1], the IκB-α entry is “↓”, the PARP cleavage result is reported as “↑”, the TRADD result is given as “↓” and the TRAF-2 entry is given as “NE”. Also, the p-Akt result in [1] is recorded as “↓”. Also, in test [2], the IC50 (in general, the midpoint of a concentration-inhibition curve) was determined as 700 nM. The IC50 in test [3] came out at 500 nM. In addition, in test [4], the half-inhibitory concentration (IC50) came to 150 nM. Further, in [5], the IC50 was 400 nM. Also, in test [6], the “TNF-R1 expression, increase compared to controls” value is 5 fold and 7.3 fold. In [7], this molecule yielded an IC50 of 150 nM. The molecule also had an IC50 in test [8] of 4 nM. In test [9], the Akt result is on record as “NE”, the Bcl-2 entry is reported as “↓”, the “inhibition of Bcl-2 expression levels” value worked out at 44% and the p-Akt result is on record as “NE”. Moreover, in [9] (48 hr), the Caspase-3 cleavage entry is “↑”, the Caspase-8 cleavage result is “↑” and the PARP cleavage entry is on record as “NE”.
